{"source": "paper PMC12136788", "binders": {"B1": {"name": "chr11:44378942:44378943:+_ENSMUSG00000019189_ENSMUST00000019333|mus_mus|FALSE|FALSE (ssRNA)", "RNA": "GGGAGUUCUACAGUCCGACGAUCUUUAAAUUUAUUAAGACAUUCAGCUAUGUCUGUCAGUCUACAUCCAAAUUUGCUACUAAAAACAAAGGAAAACCACACCCCACAGUAGGAAUACCAAGUCUGAAAUACACUUUUUUUUGACAACAGAGGAUUGAGCAUCA"}, "B2": {"name": "75764051_75764171_2063_3pUTR_ENSMUSG00000042410_ENSMUST00000047232|mouse|control|control (ssRNA)", "RNA": "GGGAGUUCUACAGUCCGACGAUCAUUCAAUUACUGGUAUAACCAUAGCUGAUGACUUUUAAAAGGUAACAUUUUUCAUAAUGAUAUUAAUGGAGUUAUAAAAGGUUUCUGUUUCCAAAGAUGUUACUUGGGUCCACAUACUCCCAACAGAGGAUUGAGCAUCA"}, "B3": {"name": "11888238_11888358_1290_CDS_ENSMUSG00000049225_ENSMUST00000108301|mouse|control|control (ssRNA)", "RNA": "GGGAGUUCUACAGUCCGACGAUCCUUUUGAAGGUCAAUGCUCCAUUUGAACUUUACAUCUCCAAAAGCCCUAAAGGGCAUCAGCAAGCCAAGCAGCCGGUCCUGCUUUACCACGCUCUUGGCCUCAUUUUUUGGGUGUUCCAGCAACAGAGGAUUGAGCAUCA"}, "B4": {"name": "chr7:7679991:7679992:-_ENSG00000106399_ENST00000396682|hu_hu|hu_hu_hu_mus_False|28_78 (ssRNA)", "RNA": "GGGAGUUCUACAGUCCGACGAUCUGGGAUGAAUCUUUUCCAGCUUCCCCACGAAGCAGACAGGCUUGUCGAUAUACUGUGGUAACAUGCUGGCGUUGACGCGCGCUCUGGGCAAGUGCAUUAUGUCCUCCAUGAUUCUGCCGCCAACAGAGGAUUGAGCAUCA"}, "B5": {"name": "126673131_126673816_2393_3pUTR_ENSMUSG00000074657_ENSMUST00000099172|mouse|control|control (ssRNA)", "RNA": "GGGAGUUCUACAGUCCGACGAUCUCUUCUCGUUCUCUUCAUUCUUCAGCCUCUCAUAGUCGGCCUGAAGCUUCUCCAGCUCUAACUGGAGCUUCUGGUUCAGGUCUUUCAGCUCAUCAAUGGUUUUCUGUUUCUCAUUAAUCUCAACAGAGGAUUGAGCAUCA"}, "B6": {"name": "chr9:66815617:66815618:-_ENSMUSG00000032370_ENSMUST00000034929|mus_hu|FALSE|FALSE (ssRNA)", "RNA": "GGGAGUUCUACAGUCCGACGAUCGUCAUGGAAUAUUUUCUGCAUAUAGUCCAAAUAUUUACAUCCUGAAGCUCUCUCUACUAUGGCUGCCAGUAGGGUAUAGCCAAAAGUUGAAUACAAAAACUGACUACCAGGUUUGAAGAACAACAGAGGAUUGAGCAUCA"}, "B7": {"name": "chr16:32386223:32386224:+_ENSMUSG00000053774_ENSMUST00000115151|mus_hu|motif|central (ssRNA)", "RNA": "GGGAGUUCUACAGUCCGACGAUCACUCUAAUUUGAUUUUGGGUUUUGUUGGCAGAAAAAGCCCAAGACAUCUGAAAAUUACGGGUAACCUCCGCCAUCCUCCUUACUAAAUGUUGUCUUCUGAAUGGAGUUGAAAGGUCUUCCCAACAGAGGAUUGAGCAUCA"}, "B8": {"name": "chrX:98862621:98862622:+_ENSMUSG00000034160_ENSMUST00000044475|mus_mus|motif|central (ssRNA)", "RNA": "GGGAGUUCUACAGUCCGACGAUCCUGCAUCUCCUUUAGAGUGUUUCCCAUAUUGGAAUAAGCAUCAGCAAAUGUAGGACGGAUUCGUAUGGCUUCUUUAUAGUGCAUCAGUGCUUCCUGCAGCUUGCCCUGCUGUUGCAGUACCAACAGAGGAUUGAGCAUCA"}, "B9": {"name": "19455474_19464526_8968_CDS_ENSG00000127481_ENST00000375254|human|control|control (ssRNA)", "RNA": "GGGAGUUCUACAGUCCGACGAUCCAUGUAUGGGAUGGCCCGGACACCGCCAACGUUUCGUAAUUGAGGCAGGGUCUGCAGUAAUCUCUCCAACAGCAUUAGACGGACCAUGUGCAGCCUGUUGCUAGUGUGGACAUCUCCUUCCAACAGAGGAUUGAGCAUCA"}, "B10": {"name": "chr16:36085169:36085170:+_ENSMUSG00000075229_ENSMUST00000164916|mus_mus|motif|central (ssRNA)", "RNA": "GGGAGUUCUACAGUCCGACGAUCCUUUAAUAACGUUAAGUCAUCCAGGUUCUUUUCUCUCUCUUCUCGGAGACUUUUUACGGCUGCUGAGGUCUGGGCUAUACAGUUCUUUAUAACUCUGUCCCUACUGACAUGAGCUGCCAUCAACAGAGGAUUGAGCAUCA"}, "B11": {"name": "chr3:96579679:96579680:+_ENSMUSG00000028098_ENSMUST00000029740|mus_hu|FALSE|FALSE (ssRNA)", "RNA": "GGGAGUUCUACAGUCCGACGAUCGUGGAGGUCUUGCUCCCCAGAAGUCAGUGUGAGUCUGGUGACCCCUUUCAUUGGCUCUAUUAUCUUGGUCCAGUGGACUGCUACUUAGAAAGGGUCUAAAAUCUUGAAAAAACAUCGUGUCAACAGAGGAUUGAGCAUCA"}, "B12": {"name": "chr2:175006660:175006661:-_ENSG00000138430_ENST00000344357|hu_hu|motif|central (ssRNA)", "RNA": "GGGAGUUCUACAGUCCGACGAUCUAUAAUGGGCCCAAUCAUUUCCUCAUCUUUAAGCUGAAGCUCUUCAUGUAUUAUUUCGGUAUCUCGAAUAGGAUCUACACUUCCUUCAACGUGCGUGAUAUCAUCAUCUUCAAAAGCACGCAACAGAGGAUUGAGCAUCA"}, "B13": {"name": "chr16:18254220:18254221:-_ENSMUSG00000022718_ENSMUST00000009321|mus_hu|FALSE|FALSE (ssRNA)", "RNA": "GGGAGUUCUACAGUCCGACGAUCUGGGGGGGGGGGGGGGGCGCACAGAGACCACAAGAGUAUGGCAGCACCUGCUGUGGUGGUGCCUGGGAACAGCAAGACACAGCGAGGCUCCCCAACCUUUAGGGGAACACAUGUGCACGACAACAGAGGAUUGAGCAUCA"}, "B14": {"name": "16358949_16359069_114_3pUTR_ENSMUSG00000022789_ENSMUST00000023477|mouse|control|control (ssRNA)", "RNA": "GGGAGUUCUACAGUCCGACGAUCCGCCUCCAUGACCCCCGAAACACUGGACCCCCAACCCAGCAGGCCACUGCAAUGAAUGGGGACUCGACCCACAGCCCGCUUGCUUCCUCUUCUCCUCCGCCCUUUCCUCGGGAGCCCGCACAACAGAGGAUUGAGCAUCA"}, "B15": {"name": "chr18:40848303:40848304:-_ENSG00000132872_ENST00000255224|hu_hu|motif|central (ssRNA)", "RNA": "GGGAGUUCUACAGUCCGACGAUCAGUUGCAAAUAGUUUUACUCAACUUUUCACACUCAAAAACACUUUAAAUUUUAAAAGCGGAAAACUAUUUACAAAUUAUCCAUUUUAAUUUUAAAAAUGUUUGUUGUUGGUUUCAUUGUUCAACAGAGGAUUGAGCAUCA"}, "B16": {"name": "chr7:141441981:141441982:+_ENSG00000106028_ENST00000265304|hu_mus|hu_hu_hu_mus_False|1_1 (ssRNA)", "RNA": "GGGAGUUCUACAGUCCGACGAUCCUCAUGUCUUACAAACUGACGAAAUACCUGUAACACAGGUCUUCGAAACAUGGCUUCUGUUUUUCUUACAACCUAAUCUUUAGGCUUUUCCUAAAGGAAAGAAAGAAAAGAGAAGCCCAGCAACAGAGGAUUGAGCAUCA"}, "B17": {"name": "chr3:16083472:16083473:+_ENSMUSG00000047213_ENSMUST00000108345|mus_mus|motif|central (ssRNA)", "RNA": "GGGAGUUCUACAGUCCGACGAUCCGAACCAUUUUGUACUGAAACUUUAUUUCCUUGCCCUUUAGGUCUCUGAUCCACGCGGGUGGCUGACAUUCUUCACCGUAACCCGAGAGGAACCGCCGCCGCCGCCGCCGCUGCCUGGGCCAACAGAGGAUUGAGCAUCA"}, "B18": {"name": "chr8:104447970:104447971:+_ENSG00000164934_ENST00000297579|hu_hu|hu_hu_hu_mus_False|78_88 (ssRNA)", "RNA": "GGGAGUUCUACAGUCCGACGAUCAUACACUUCCCUGCUUCGGCUCUUGUCUACAGGAAAGAUUCGAAUAGACUUAUCAAAGCUGGCAGACACAAAUUCCUUCCCAGUGGGAGAGUAGUCCACAUCAAGUACUGCAGACACGUGCAACAGAGGAUUGAGCAUCA"}, "B19": {"name": "chr10:98431539:98431540:+_ENSMUSG00000019943_ENSMUST00000020107|mus_hu|FALSE|FALSE (ssRNA)", "RNA": "GGGAGUUCUACAGUCCGACGAUCCGUAAUUCCAAAGUCUCCAUCAUGAUUAGCUUCCUUCAAAGAGUUUUUCACACCACUGUAAGCAACUGAGUUGUUUGCCAUGUCGCCCAUUACAAGUAUAAUAUAUCAGAAGGAAAAUGUCAACAGAGGAUUGAGCAUCA"}, "B20": {"name": "chr13:108516651:108516652:-_ENSMUSG00000032846_ENSMUST00000105097|mus_hu|motif|central (ssRNA)", "RNA": "GGGAGUUCUACAGUCCGACGAUCAUCAUGCGCCAUUAAGAAGGUCUCUCGGGCUUUGCUGAGGAACUCUAUAAACUCACGGUAGUGCCGAGGACUGAUGUGUGUGAGCCGUGAGUGCGUUGUGUUGAUGUAGGCCCCGAUCGUCAACAGAGGAUUGAGCAUCA"}, "B21": {"name": "127924370_127924490_3061_CDS_ENSMUSG00000025369_ENSMUST00000099131|mouse|control|control (ssRNA)", "RNA": "GGGAGUUCUACAGUCCGACGAUCUCCAGCAGCCCCGGUGGGAGGUAUGGGCUGGGAGCCUGGGGGCAAGGUUGGUGGCUGCUGCUGCUGCUGCUGGUGCAUCUGCUGGAAGUGCUGCUGCCGGGCCCUCAUCUCUGCAUACUUCAACAGAGGAUUGAGCAUCA"}, "B22": {"name": "129069043_129072782_2106_CDS_ENSMUSG00000034951_ENSMUST00000057576|mouse|control|control (ssRNA)", "RNA": "GGGAGUUCUACAGUCCGACGAUCAUUGUCAGCCAUGUUGUCCAACUCGGGAAGUUCAUCCCCUUGCUCAGGAGGGAAUGGCAGCUUCCCAGCAUGCAAGGCCAACUCUAAUGCAGAGUCCUCUUGAGUCACAAAUGGCUCAAGCAACAGAGGAUUGAGCAUCA"}}, "note": "Some of the results follow.", "data": [{"target": "T1, UNK ZnF1-3 (human, UniProt Q9C0B0 31-174)", "T1 sequence": "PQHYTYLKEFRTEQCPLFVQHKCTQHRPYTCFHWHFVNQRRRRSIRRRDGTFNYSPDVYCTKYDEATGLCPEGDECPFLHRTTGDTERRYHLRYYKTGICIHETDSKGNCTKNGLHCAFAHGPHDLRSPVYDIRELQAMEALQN", "test": "nsRBNS (natural sequence RNA bind-n-seq); RBNS binding buffer (assumed for nsRBNS): 25 mM Tris pH 7.5, 150 mM KCl, 3 mM MgCl2, 0.01% Triton X-100, 500 ug/ml BSA, 20 U/ml SUPERase-In, 4 C; UNK is unkempt and MSI1 is Musashi-1; names of the RNAs are library labels; protein concentration not given here; high values mean tight binding", "units": {"binding signal": "enrichment R"}, "values": [{"binder": "B1", "binding signal": 1.14}, {"binder": "B2", "binding signal": 1.25}, {"binder": "B3", "binding signal": 0.803}, {"binder": "B4", "binding signal": 0.626}, {"binder": "B5", "binding signal": 0.341}, {"binder": "B6", "binding signal": 1.2}, {"binder": "B7", "binding signal": 1.15}, {"binder": "B8", "binding signal": 0.999}, {"binder": "B9", "binding signal": 0.89}, {"binder": "B10", "binding signal": 0.496}, {"binder": "B11", "binding signal": 0.722}, {"binder": "B12", "binding signal": 0.782}, {"binder": "B13", "binding signal": 1.23}, {"binder": "B14", "binding signal": 1.36}, {"binder": "B15", "binding signal": 0.806}, {"binder": "B16", "binding signal": 0.368}, {"binder": "B17", "binding signal": 0.897}, {"binder": "B18", "binding signal": 0.981}, {"binder": "B19", "binding signal": 1.25}, {"binder": "B20", "binding signal": 0.756}, {"binder": "B21", "binding signal": 1.14}, {"binder": "B22", "binding signal": 0.225}]}]}
